Changes are numbered by the printed parent chain. Recombinant human monoclonal antibodies (heavy:light variable regions). ELISA EC50 on the named antigen, from 10 µg/ml down; lower = stronger. No active / inactive call.
B1: C968 (protein)
chain 1: QVQLVESGGGVVQPGRSLRLSCAASGFTFRIYAMHWVRQAPGKGLEWVAIIWNDGNKKDYVDSVKGRFTISRDNSRNTVYLQMNSLRVDEDTAVYYCAREGVAVGGNGVDGFDMWGQGTMVTVSS
chain 2: DIQMTQSPSSLSSSVGDRVTITCRASQSIGIYLNWYQQKPGKVPNLLIYAASTLQTGAPSRFSGSGSGTDFILSISSLQPEDFATYYCQQTYSVPYTFGQGTKLEIK
B2: C981 (protein)
chain 1: EVQLVESGGGLVQPGGSLRLSCAASGFTFSNYDMHWVRQVTGNGLEWVAAIGTSGDTYYPDSVKGRFTISRENVKNSLFLQMNSLRAGDTAVYYCARGGSSSWLWYFDLWGRGTLV
chain 2: DIQMTQSPSSLSASVGDRVTITCRASQSISSHLNWYQQKPGKVPKLLIYAASTLQSGVPSRFSGSGSGTDFTLTISSLQPEDFATYYCQQSYSMPPVTFGQGTRLEIK
B3: C980 (protein)
chain 1: QVQLVQSGAEVKKPGSSVKVSCEASGGTFSSDSINWVRQAPGQGLEWMGRIIPIFGATNYAQKFQGRVTITADKSTDTVYMEVSSLTSEDTAVYYCARGGIAVGGWWFDPWGQGTLVTVSS
chain 2: EIVMTQSPATLSVSPGERATLSCRASESVSSKLAWYQQKPGQAPRLLIYGASTRATGISARFSGSGSGTDFTLTISSLESEDFAVYYCQQYNHWPPNTFGQGTKLEIK
B4: C977 (protein)
chain 1: EVQLVESGGGLVQPGGSLRLSCAASGFTFSNYDMHWVRQVTGKGLEWVSLIGTAADAYYADSVKGRFTISRENAKNSLYLQINSLRAGDTAVYFCARGDSSGLYTFFDYWGQGTLVTVSS
chain 2: DIQMTQSPSSLSASVGDRVTITCRASQSVTRYLNWYQLKPGKAPKLLIYAASSLQSGVPSRFSGSGSGTDFTLTISSLQPEDFATYYCQQSYSTLGLTFGGGTKVEI
B5: C841 (protein)
chain 1: EVQLVESGGGLVQPGGSLRLSCAASGFTFSIFSMNWVRQAPGKGLEWISYISSSSGSRHYADSVKGRFTISRDNAKNSLYLQMNNLRDEDTAMYYCAREAHDGALTGYGDYLNWFDPWGQGVLVTVSS
chain 2: SYELTQPPSVSVAPGKTARIPCGGDSVGSKSVHWYQQKSGQAPVLVIHSDSDRPSGIPERFSGSNSGNTATLTITGVAAGDEADYYCHVWDTIGDRFYWVFGGGTKLTVL
B6: C971 (protein)
chain 1: EVQLVESGGGLVKPGGSLRLSCAASGFTFNNAWMTWVRQAPGKGLEWVGRIKSKTDGGTTDYGTPAKGRFTISRDDSKNTLYLQMKSLRTEDTAVYYCTTVDVQGIWELLENDAFDIWGQGTMVTVSS
chain 2: EIVLTQSPGTLSLSPGERATLSCRATQAISSTYLAWYQQKPGQAPRLLIYGAFSRAPGIPDRFSGSGSETDFTLTISRLEPEDFAVYYCQQSDRSPFTFGPGTKVDIK
B7: C842 (protein)
chain 1: QVQLVESGGGVVQPGRSLRLSCAASGFTFSTYAIHWVRQAPGKGLEWVAAISYDGSNKYYSDSVKGRLFISRDNSNNTVYLQMNNLRAEDTAIYYCARDGTIVTLVRGVMGPPFDYWGQGTLVTVSS
chain 2: not shown
B8: C979 (protein)
chain 1: QVQLVESGGGVVQPGRSLRLSCVASGFTFSNYGMHWVRQAPGKGLEWVAVILYDGSDKYYLDSVKGRFTISRDNSKNTLFLQLNSLRAEDTAVYYCAKEGNGYGYQYAGMDVWGQGTTVTVS
chain 2: QSALTQPASVSGSPGQSITISCTGTNSDVGGYDYVSWYQQHPGKAPKLIIFEVINRPSGVSNRFSGSKSGNTASLTISGLRAEDEADYYCCSYTTSTTRVFGGGTKLTVL
B9: C970 (protein)
chain 1: QVQLQESGPGLVKPSETLSLTCTVSGDSINKYYWGWIRQPPGKGLEWIGYIYYSGTTNYNPSLKSRVTISVDTSKTQFSLKLSSVTAADTAVYYCARLLSTEWSFNWFDPWGQGTLVTVSS
chain 2: SYELTQPPSVSVSPGQTASITCSGDTLGDKYACWYQQKPGQSPLLVIYQNNKRPSGIPERFSGSNSGNTATLTISGTQAMDEADYYCQAWDSSTAYVFGTGTKVTVL
B10: C972 (protein)
chain 1: EVQLVESGGGLVQPGGSLRLSCAASEFIVSRNYMSWVRQAPGKGLEWVSLIYPGGSTYYPDSVKGRFTISRDNSKNTLYLQMNSLRGEDTAVYYCARDLGDSRLDYWGQGALVTVSS
chain 2: DIQLTQSPSFLSASVGDRVTITCRASQGISSYLAWYQQDPGKAPKLLIYAASTLQSGVPSRFSGSGSGTEFTLTISSLQPEDFATYYCQQLDSYPPGYSFGQGTKLEIK
B11: C978 (protein)
chain 1: QVQLVQSGAEVKKPGSSVKVSCKASGATFSNYIISWVRQAPGQGLEWMGRTIPLLDIANYAQKFQGRVTITADKSTRIVYMHLGSLTSEDTAVYYCATGKGYSSSSAAYYFDHWGQGTLVTVSS
chain 2: QSVLTQPPSVSGAPGQRVTISCTGTNSNIGAGYDIHWYQQLPGTAPKLLIYGSNNRPSGVPDRFSGSKSGTSASLAITGLQAEDEADYYCQSYDSSLSGSEVFGGGTKLTVL
B12: C974 (protein)
chain 1: EVQLVESGGDLTQPGGSLRLSCAASGFTFSNYDMHWVRQATGKGLEWVSGIGTSGDTYYADSVKGRFTISRENAKNSLFLQMNHLRAGDTATYYCARTEYAWGSYRSYWYFDLWGRGTLVTVSS
chain 2: DIQMTQSPSSLSASVGDRVTITCRTSQTISTYLNWYQQKPGKAPKVLIFAASSLQSGVPSRFSGSGSGTDFTLTISSLQPEDFATYFCQQSYSAPPWTFGPGTKVEIK
B13: C975 (protein)
chain 1: B12 chain 1 with N31S, H84N
chain 2: B12 chain 2 with F49Y
B14: C976 (protein)
chain 1: EVQLVESGGALIQPGGSLRLSCAASGFTVSSNDMTWVRQAPGKGLEWVSVIYTGGGTYHADSAKGRFIISRHNSKNTLSLQMNDLRAEDTAVYYCARLTMTTYYFDSWGQGTLVTVSS
chain 2: SYELTQPPSVSLAPGQTARITCGGNGIGSKSVHWYQQKPGRAPVLVVYDDSVRPSGTPARFSGANSGNTATLTISRVEAGDEADYYCQVWDSFRDHQDWVFGGGTKLTVL

Target: SARS-CoV-2 Wuhan-Hu-1 spike receptor-binding domain
Experiment: ELISA binding EC50; higher = weaker binding; ELISA of recombinant human antibody on coated antigen, from 10 µg/ml in fourfold dilutions; four-parameter fit.

| Binder | ELISA binding EC50 [ng/mL] |
| --- | --- |
| B1 | 3.19 |
| B2 | 2.12 |
| B3 | 4.07 |
| B4 | 2.13 |
| B5 | 3.15 |
| B6 | 2.21 |
| B7 | 3.01 |
| B8 | 2.54 |
| B9 | 3.71 |
| B10 | 2.18 |
| B11 | 2.09 |
| B12 | 2.94 |
| B13 | 2.88 |
| B14 | 2.52 |

— the supplement of paper PMC8277577
